# Results taken from the supplement of paper PMC3334620.
# Over roughly 33,000 sequences, “E-score (-0.5 to 0.5)” has its median near -0.01; the highest 2% begin near 0.26. This is one part of the list.
# Molecular target: Ste12 (UniProt P13574)
# Assay: PBM E-score (8-mer binding enrichment) (E-score (-0.5 to 0.5)); higher = stronger / more preferred TF binding; most listed sequences are background and not binding sites
# Conditions: protein concentration: 200 nM; construct: GST-DNA-binding domain
# In short: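 E-scores (a modified Wilcoxon-Mann-Whitney statistic) were assigned by the Universal PBM Analysis Suite to every ungapped eight-base word pooled with its reverse complement. The input came from universal all-10-mer Agilent arrays made double-stranded by primer extension and probed with GST-tagged yeast transcription factors at about 100-200 nM. Fluorescent anti-GST detected bound protein, and masliner normalised the scans.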
row,Sequence,PBM E-score
1,ATCTCTTG,-0.122
2,CTCCCATA,-0.0685
3,GCTACGCC,-0.233
4,GAGGGAAA,-0.125
5,CGATAGTC,-0.186
6,CGTGGCAA,-0.0954
7,TCATTTAA,0.0578
8,GTACCGAC,-0.124
9,AGAACTCT,-0.0638
10,AGGCACCG,-0.185
11,GAGAGGCA,-0.223
12,CCACACCA,0.0353
13,TCTGGTAA,0.174
14,ATGGATAC,-0.00603
15,AAACAAAG,0.233
16,AAGTAAAC,0.0949
17,GTCGCCAC,-0.0513
18,CCTTCGTA,-0.0727
19,CTTTCGGC,0.0422
20,CACATCTG,-0.0216
21,AGTACGGG,-0.102
22,TAAGCTAA,0.0672
23,AATCGCAA,0.0922
24,CTGTTTAA,0.22
25,ATACCGGC,0.0847

row,Sequence,PBM E-score
1,GAGTGACC,-0.121
2,GGCAATTA,0.137
3,GGATTGGA,0.00134
4,CGACTTAC,-0.212
5,AAGGGCAG,-0.0445
6,ACAGTAAA,0.117
7,GCGTAACC,-0.0453
8,CGCCACCA,-0.00185
9,ATGGTTAC,0.151
10,CATATAGC,0.0249
11,CCGTTGAA,0.0239
12,CAGAATCC,-0.0318
13,ATCGGCTA,0.0548
14,TATAACGA,-0.0531
15,CCCACCTA,0.155
16,ACGAGTGC,-0.151
17,ACTAAACC,0.0959
18,AGGTCGAA,0.145
19,AGACGCGC,-0.0705
20,CGACCCGA,-0.171
21,AAGAATGT,0.00091
22,CCAGGCGG,0.0621
23,GGGTGGCA,-0.0324
24,GGTCCCAC,-0.293
25,TCCGAGAA,0.041

row,Sequence,PBM E-score
1,GAATGACA,0.0695
2,AATAGCGT,0.0141
3,CGAGCTCA,0.0946
4,CAGGTAAG,0.0995
5,AGGCGGTA,-0.0148
6,GTAAGCGA,-0.222
7,CCATAAAC,-0.069
8,CATACACG,0.00503
9,CTGCAGGA,0.101
10,CCGTATCA,0.167
11,TTGATAAA,0.277
12,ATAACGGG,-0.105
13,ATGAATCA,0.177
14,GACAAGTC,-0.249
15,ATTACAAG,0.082
16,CACGGGGA,-0.0574
17,GCTAATAC,0.0435
18,CTCTTCCA,-0.174
19,ACATTATA,0.125
20,CCCTTTCA,0.0514
21,GTGGCCTA,-0.119
22,GGTTACGA,-0.166
23,ATGGGGTG,0.222
24,ATTAAGGC,0.045
25,CACTTTAC,0.143

row,Sequence,PBM E-score
1,CTAATCAA,0.15
2,CGTCTAAC,-0.119
3,AGGACGCC,-0.239
4,CAGCGAAA,-0.118
5,GCCTGGAA,0.0491
6,ACATGTAG,0.13
7,CAAACCAA,0.205
8,ATATAGCA,-0.0255
9,ACACGCGG,-0.0112
10,GCTACACC,-0.00127
11,AAGATTAC,0.0371
12,ACCTGAGG,-0.204
13,GCGATAGA,-0.0219
14,ATCGTTGG,-0.0687
15,AAGTATCA,0.112
16,ATATGCAC,-0.0918
17,AGGTGGTC,-0.125
18,GTTACCCA,-0.132
19,GATCGGAC,-0.08
20,AGCTAACC,-0.247
21,ACTGATAT,0.0139
22,ACACAAAT,0.108
23,AAGCATGG,-9e-05
24,AACACGAG,-0.0416
25,CCGCAGAG,-0.315

row,Sequence,PBM E-score
1,ATGATGCA,0.0409
2,ATTGCATA,0.0558
3,CGATAACA,0.171
4,AAACTGCC,0.15
5,CGTTCAGA,-0.0653
6,AGTACAAA,0.107
7,CGGCGATA,0.0354
8,CAACACTG,0.018
9,CGCTACCC,-0.0363
10,AGTATCAC,0.015
11,GATCTTCC,-0.152
12,AATCACGG,0.0746
13,GTCCAGGA,-0.195
14,GCATTTCC,0.171
15,TTCACCAA,0.0895
16,CCGACTAG,0.0018
17,AAATTTAT,0.263
18,CTTAATGA,-0.0221
19,AGCGGCAT,0.132
20,GACGATAA,0.051
21,CCCGTCAC,0.0322
22,ATCGATGC,0.0636
23,AGAAGCCA,0.0744
24,ATGAGGAG,-0.258
25,GGATTGAC,-0.107

row,Sequence,PBM E-score
1,AGCCGTGC,-0.287
2,ACTTAATA,0.189
3,CAAAGCTA,-0.077
4,ACGCCAAA,0.0442
5,CCGCGAAA,0.142
6,AGAATCGC,-0.0927
7,CACTATGC,-0.0894
8,AACACTAC,0.139
9,CGGCACAG,-0.103
10,GAGATTTA,0.0215
11,GTCGTACA,-0.151
12,ATGCGGAA,0.107
13,CCACACGG,-0.173
14,AGCATCCT,-0.126
15,AGACATCT,-0.0331
16,GATTCCCA,0.051
17,AAGCGTTC,-0.0611
18,AATAAAAT,0.183
19,ATCTCCAC,-0.162
20,GCCTGGCA,-0.11
21,GGTGTAGA,0.0598
22,AGCACCGG,0.0797
23,GCAACAAC,-0.0707
24,CGAAATAA,0.131
25,TCACTTCA,-0.0724

row,Sequence,PBM E-score
1,ATGCAATA,0.0597
2,CGAATTCC,-0.0287
3,AGTCCCAC,-0.133
4,AAAGCTTA,0.0681
5,ACAACCAA,0.0252
6,GAGCATAC,-0.118
7,TCAGCGCA,0.0912
8,GATGCGCA,-0.031
9,GGCGGTAC,0.157
10,ATGTGTGG,0.0515
11,AGGTTTGA,0.0835
12,AAGAGGAA,0.0753
13,ACATATTA,0.193
14,CTGGTAAG,-0.00524
15,ACTCGTTA,-0.243
16,AAACTAAC,0.259
17,ATTAGTCC,-0.0349
18,AAGACACC,-0.00469
19,AGACAACA,-0.193
20,TCTCTCAA,0.0783
21,ACAAATAT,0.231
22,GGAGCGTA,0.083
